# Source: the RNAGym collection of RNA variant scans (doi:10.7554/elife.90254)
# Read counts are not given, so values of variants with three or more changes are uncertain.
# B1: OR4K15 (parent)
# chain: GUUAACGGUCAUAGGCCAUGGAAACUAGGAGCACCAUUUCGCUGCCAGUGAAGAAAUGAACAAAGAAAAUCUGGGCCAGGCAGGCAUCAAAAGAAAUAGUCUUGCGCUCAACCAGAAAGUCUGUAAUCAUUUUAAGGGUA
# Variants of: B1
# Assay: self-cleavage, relative activity (ratio to wild type); higher = more cleavage; in vitro, sequencing; the parent is a self-cleaving ribozyme
row,Variant,self-cleavage
1,GUUAACGGUCAUAGGCCACGGUAACUAGGAGCACCAUUUCGCUGCCAGUGAAGAAAUGAACAAAGAAAAUCUGGGCCAGGCAGGCAUCGAAAGAAAUAGUCUUGCGCUCAACCAGAAAGUCUGUAAUCAUUUUAAGGGUA,1.52
2,GCUAACGGUCAUAGGCCAUGGAAACUAGGAGCACCAUUUCGCUGCCAGUGAAGAGAUGAACAAAGAAAAUCUGGGCCAGGCAAGCAUCAAAAGAAAUAGUCUUGCGCUCAACCAGAGAGUCUGUAGUCAUUUUAAGGGUG,1.02
3,GUUAACGGUCAUAGGCCAUGGAAACUAGGAGCACCACUUCGCUGCCAGUGAAGUAAUGAGCAAAGAAAAUCUGGGCCAGGCAGGCAUCAAAAGAAAUAGUCUUGCGCUCAUCCAGAAAGUCUGUAAUCAUUUUAAGGGUA,0.09
4,GUUAACGGUCAUAGGCCAUGGAAACUAGGAGCACCAUUUCGCUGCCAGUGAAGAAAUGAACAAUGAAAAUCUGGGCCAGGCAGGCAUCAAAAGAAAUAGUCUUGCGCUCAACCAGAAAGUCUGUAGUCAUUUUAAGGGUU,0.64
5,GUUAACGGUCAUAGGCCAUGGAAACUAGGAGCACCAUUUCGCUGCCAGUGAAGAAAUGAACAAAGAAAAUCUGGGCCAGGCAGGCAUCAAAAAAGAUAGUCUUGCGCUCAACCAGAAAGUCCGUAAUCAUUUUGAGGGUA,2.55
6,GUUAAAGGUCAUUGGCCAUGGAAACUAGGAGCACCAUUUCGCUGCCAGUGAAGAAAUGGACAAAGAAAAUCUGGGCCAGGCAGGCAUCAAAAGAAAUAGUCUUGCGCUCAACCAGAAAGUCUGUAACCAUUUUAAGGGUA,1.21
7,GCUAACGGUCAUAGGCCAUGGAGACUAGGAGCACCAUUGCGCUGCCAGUGAAGGAAUGAACAAAGAAAAUCUGGGCCAGGCAGGCAUCAAAAGAAAUAGUCUUGCGCUCAACCAGAAAGUCUGUAAUCAUUUUAAGGGUA,0.73
8,GUUAGCGGUCAUAGGCCAUGGAAACUAGGAGCACCAUUUCGCUGCCAGUGAAGAAAUUAACAAAGAAAAUCUGGGCCAGGCAGGCAUCAAAAGAAAUAGUCUUGUGCUCAACCAGAAAGUCUGUAAUCAUUUUAAGGGUA,0.24
9,GUUAACGGUCAUAGGCCAUGGAAGCUAGGAGCACCAUUUCGCUGCCAGUGAAGAAAUGAACAAAGAAAAUCUGGGCCAGGCAGGCAUCAAAAGAAAUAGUCUUGCGCUCAGCCGGAAGGUCUGCAAUCAUUUUAAGGGUA,0.01
10,GUUAACGGUCAUAGGCCAUGGAAACUAGGAGCACCAUUUCGCUGCCAGUGAAGAAAUGAACAAAGAAAAUCUGGGCCAGGCAGGCAUCGAAAGAAAUAGUCUUGCGCUCAACCAGGAUGUCUGUAAUCAUUUUAAGGGUA,0.32
11,GUUAACGGUCAUAGGCCAUGGAAACUAGGAGCACCAUUUCGCUGCCAGUGAAGAAAUGAACAAAGAAAAUCUGGGCCAGGCAGGCAUCAAAAGAAAUAGUCUUGCGCCCAACCAGAAAGUCUGUAGUCAUUCUGAGGGUA,0
12,GUUAACGGUCGUAGGCCAUGGAAACUAGGAGCACCAUUUCGCCGCCAGUGAAGAAAUGAACAAAGAAAAUCUGGGCCAGGCAGGCAUCAAAGGAAAUAGUCUUGCGCUCAACCAGAAGGUCUGUAAUCAUUUUAAGGGUA,1.23
13,GUUAACGGUCAUAGGCCAUGGAAACUAGGAGCACCAUUUCGCUGCCAGUGAGGAAAUGAACAAAGAAAAUCUGGGCCAGGCAGGCAUCAAAAGAAAUAGCCUUGCGCUCAACCAGAUAGUCUGUAAUCAUUUUAGGGGUA,0.82
14,GUUAACGGUCAUAGGCCAUGGAAACUAGGAGCACCAUUUCGCUGCCAGUGAAGAAGUGAACAAAGAAAAUCUGGGCCAGGCAGGCAUCAAAAGAGAUAGUCUUGCGCUCGACCAGAAAGUCUGUAAUCAUUUUAAGGGUA,0.15
15,GUUAACGGUCAUAGGCCAUGGGAACUAGGAGCACCAUGUCGCUGCCAGUGAAGAAAUGAACAAAGAAAAUCUGGGCCAGGCAGGCAUCAAAAGAAAUAGUCUUGCGCUCAACCAGAAAGCCUGUAAUCAUUUUAAGGGUA,1.58
16,GUUAACGGUCAUAGGCCAUGGAAACUAGGAACACCAUUUCGCUGCCAGUGAAGAAAUGAACAAAGAAAAUCUGGGCCAGGCAGGCUUCAAAAGAAAUAGUCUUGCGCUCUACCGGAAAGUCUGUAAUCAUUUUAAGGGUA,1.27
17,GUUAACGGUCAUAGGCCAUGGAGACAAGGAGCACCAUUUCGCUGCCAGUGAAGAAAUGAACAAAGAAAAUCUGGGCCAGGCAGGCAUCAAAAGAAAUAGUCUUGCGCUCAACCAGAAAGUCUGUAAUCAUUUUAUGGGUA,1.47
18,GUUAACGGUCAUAGGCCGUGGAGACUAGGGGCACCAUUUCGCUGCCAGUGAAGAAAUGAACGAAGAAAAUCUGGGCCAGGCAGGCAUCAAAAGAAAUUGUCUUGCGCUCGACCAGAAAGUCCGUAAUCAUUUUAAGGGCA,0.1
19,GCUAACGGUCAUAGGCCAUGGAAACUAGGAGCACCAUUUCGCAGCCAGUGAGGAAAUGAACAAAGAAAAUCCGGGCCAGGCAGGCAUCAAAAGAAAUAGUCCUGCGCUCAACCAGAAAGUCUGUAAUCAUUUUAAGGGUA,0.47
20,GUUAACGGUCAUAGGCCACGGAAACUAGGAGCACCCUUCCGCUGCCGGUGAAGAAAUGAACAAAGAAAAUCUGGGCCAGGCAGGCAUCAAAAGAAAUAGUCUUGCGCUCAACCAGAAAGUCUGUAAUCAUUUUAAGGGUA,0.75
21,GUUAACGGUCAUAGGCCAUGGAAACAAGGAGCACCAUUUCGCUGCCAGUGAAGAAAUGAACGAAGAAGAUCCGGGCCAGGCAGGCAUCAAAAGAAAUAGUCUUGCGCCCAACCAGAAAGUCUGUAAUCAUUUUAAGGGUA,0

row,Variant,self-cleavage
1,GUUAACGGUCAUAGGCCAUGGAAACUAGGAGCACCAUUUCGCUGCCAGUGAAGAAAUGAACAAGGAAGAUCUGGGCCAGGCAGGCAUCAAAAGAAAUAGUCUUGCACUCAACCAGAAAGUCUGUAAUCAUUUUAAGGGUA,0.02
2,GCUAACGGUCAUAGGCCAUGGAAACUAGGAGCACCAUUUCGCUGCCCGUGAAGAAAUGAGCAAAGAAAAUCUGGGCCAGGCAGGCAUCAAAAGAAAUAGUCUUGCGCUCAACCAGAAAGUCUGUAAUCAUUUUAAGGGUA,0.91
3,GUCAACGGUCGUAGGCCAUGGAAACUAGGAGCACCAUUUCGCUGCCAGUGAAGAAAUGAACAAAGAAAAUCUGGGCCAGGCGGGCAUCAAAAGAAAUAGUCUUGCGCUCAACCAGAAAGUCUGUAAUCAUUUUAAGGGUA,0.76
4,GUUAACGGUCAUAGGCCAUGGAAACUAGGAGCACCAUUUCGCUGCCAGUGAAGAAAUGAACAAAGAAAAUCUGGGCCAGGCAGGCAUCAAUAGAGAUAGUCUUGCGCUCAUCCAGAAAGUCUGUAAUCAUUUUAAGGGUA,0.38
5,GUUAACGGUCAUAGGCCAUGGAAACUAGGAGCACCAUUUCGCUGCCAGUGAAGAAAUGAACAAAGAUAAUCUGGGCCAGGCAGGCACCAAAAGAAAUACUCUUGCGCUCAACCAGAAAGUCUGUAAUCAUUUUAAGGGUA,0.4
6,GUUAACGGUCAUAGGCCUUGGAAACUAGGAGCACCAUUCCGCCGCCAGUGAAGAAAUGAACAAAGAGAAUUUGGGCCGGGCAGGCAUCAAAAGAAAUAGUCUUGCGCUCAACCAGAAAGUCUGUAAUCAUUUUAAGGGUA,0.19
7,GUUAACGGUCAUAGGCCAUGGAAACUAGGAGCACCAUUUCGCUGCCAGUGAAGAAAUGAACAAAGAAAAUCAGGGCCAGGCAGGCAUCAAAAGAAAUAGUCCUGCGCUCGACCAGAAAGUCUGUAAUCAUUUUAAGGGUA,0.05
8,GUUAACGGUCAUAGGCCAUGGAAACUAGGAGCAGCAUUUCGCUGCCAGUGAAGGAAUGAACCAAGAAAAUCUGGGCCAGGCGGGCAUCAAAGGAAAUAGUCUUGCGCUCUACCAGAAAGUCUGUAAUCAUUUUAAGGGUA,0.31
9,GUUAACGGUCAUUGGCCAUGGAAACUAGGGGCACCAUUUCGCUGCCAGUGAAGAAAUGAACAAAGAAAAUCUGGGCCAGGCAGGCAUCAAAAGAAAUAGUCUUGCGCUCAACCAGAAAGUCUGUAGUCAUUUUAAGGGUA,0.74
10,GUUAACGGCCAUAGGCCAUGGAAACUAGGAGCACCAUUUCGCUGCCAGUGAAGAAAUGAACAAAGAAAAUCUGGGCCAGGCAGGCAUCAAAAGAAAUAGUCUUGCGCUCAACCAGAGAGCCUGUAAUCAUUUUAAGGGUA,0.83
11,GUUAACGGUCAUAGGCCAUGGAAGCUAGGAGCGCCAUUUCGCUGCCAGUGAAGAAGUGAACAAAGAAAAUCUGGGCCAGGCAGGCAUCAAAAGAAAUAGUCUUGCGCUCAACCAGAAAGUCUGUAAUCAUUUUAAGGGUA,0.67
12,GUUAACGGUCAUAGGCCAUGGAAACUAGGAGAACCAUUUCGCUGCCAGUGAAGAAAUGAACAAAGAAAAUCUGGGCCAGGCAGGCAUCAAAAGAAAUAGCCUUGCGCUCAACCAGAAAGUCUAUAAUCAUUUUAAGGGUA,1.98
13,GUUAACGGUCAUAGGCCAUGGAAACUAGGAGCACCAUUUCGCUGCCAGUGAAGAAAUGAACAAAGAAAACCUGGGCCAGGCAGGCAUCGAAAGAAAUAGUCUUGCGCCCGACCAGAGAGUCUGUAAUCAUUUUAAGGGUA,0
14,GUUAACGGUCAUAGGCCAUGGAAACUAGGAGCACCAUUCCGCUGCCAGUGAAGGAAUGAACAAAGAAAAUCUGGGCCAGGCUGGCAUCAAAAGAGAUAGUCUUGCGCUCAACCGGAAAGUCUGUAAUCAUUUUAAGGGUA,0.09
15,GUUAACGGUCAUAGGCCAUGGAAACUAGGAGCACCAUUUCGCUGCCAGCGAAGAGAUGAACAAAGAAAAUCUGGGCCAGGCAGGCAUCAAAAGAGAUAGUCUUGCGCUCAACCAGAAAGUCUGUAAUCAUUUUAAGGGUA,1.11
16,GUUAACGGUCAUAGGCCAUGGAAACUAGGAGCACCAUUUCGCUGCCAGUGGAGAAAUGAACAAAGAAAAUCUGGGCCAGGCAGGCAUCAAAAGAAAUAGUCCUGCGCCCAACCAGAAAGUCUGUAAUCAUUUUAAGGGUA,0.01
17,GUUAACGGUCAUAGGCCAUGGAAACUAGGAGCACCAUCUCGCUGCCAGUGAAGAAAUGAACAAAGAAAAUCUGGGCCAGGCAGGCAUCUAAAGAAAUAGUCUUGCGCUCAGCCAGAAAGUCUGUAAUCAUUUUAAGGGUG,0.01
18,GUUAACGGUCAUAGGCCAUGGGAACUAGGAGCACCAUUUCGCUGCCGGUGAAGAAAUGAACAAAGAAAAUCUGGGCCAGGCAGGCAUCUAAAGAAAUAGUCUUGCGCUCAACCAGAAAGUCUGUAAUCAUUUUAAGGGUA,0.77
19,GUUAACGGUCAUAGGCCAUGGAAACUAGGAGCACCAUUUCGCUGCCAGUGAAGAAAUGAGCAAGGAAAAUCUGGGCCAGGCAGGCAUCAAAAGAAAUAGUCUUGCGCUCAACCAGGAAGUCUGUAGUCAUUUUAAGGGUA,0.21
20,GUUAACGGUCAUAGGCCAUGGGAACUAGGAGCACCAUUUCGCUGCCAGUGAAGAAAUGAACAAAGAAAAUCUGGGCCAGGCAGGCAUCAAAGGAAAUAGUCUUGCGCUCAACCAGAAAGUCUGUAAUCAUCUUAAGGGUA,1.91
